Measured values as given in article PMC12040169 (PLOS Biology, 2025).
The list shows a part of the results.

system: T1, C. trachomatis L2/434/Bu expressing GFP (CTL2-GFP); parameters: species or system HeLa; C. trachomatis total inclusion area by high-content imaging, normalised to DMSO; conditions: total inclusion area; 28.5 h, 10 µM; inhibitor
T1 construct: L2/434/Bu GFP intracellular growth in HeLa cells
Method in brief: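 High-content images of fixed, Hoechst-stained infected cultures supply inclusion area and count (growth) plus nuclei number (viability), complementing bulk GFP/resorufin fluorescence. MIC determination is unchanged from the primary assay.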

Row | SMILES | % of control remaining
1 | COC(=O)C#CCNc1cc(Cl)ccc1Cl [CBK025852] | 7.574
2 | CC(C)OCC(O)Cn1c(NC2CCCCC2)nc2c1c(=O)[nH]c(=O)n2C (stereo not shown) [CBK140893] | 81.7575
3 | CC(=O)Nc1ccc(N/C=C(/C#N)c2nc(-c3ccc([N+](=O)[O-])cc3)cs2)cc1 [CBK262377] | 94.6087
4 | CC(=O)Nc1ccc(OCCO)cc1 [CBK149724] | 93.2667
5 | O=C(C1CCC1)N1CC(n2nc(-c3ccccc3)ccc2=O)C1 [CBK284624] | 87.6523
6 | CN1C2CCC1CC(OC(=O)CCN1CCOCC1)C2 (stereo not shown) [CBK261465] | 83.1105
7 | Cc1nn(Cc2cccc(C(=O)O)c2)c(C)c1Br [CBK286950] | 101.682
8 | O=c1c2cc(Cl)ccc2sc2ncccc12 [CBK008118] | 61.3255
9 | CC(=O)N[C@H]1[C@H](Oc2ccc3ccccc3c2)O[C@@H]2COC(C)(C)O[C@H]2[C@@H]1O [CBK091644] | 89.3739
10 | Cc1cccc(NS(=O)(=O)c2cc(C(=O)NCc3ccccn3)ccc2C)c1 [CBK268767] | 95.9744
11 | CCn1nc(C)c(NC(=O)c2ncoc2-c2ccc(F)cc2)c1C [CBK282360] | 74.606
12 | Cc1[nH]ncc1CN1CCCC(c2cc3ccccc3cn2)C1 (stereo not shown) [CBK285029] | 60.7417
13 | CN1CCC[C@H]1C(=O)Nc1ccc2ncccc2c1 [CBK159825] | 103.662
14 | O=C(/C=C/c1ccc(Cl)cc1)Nc1nnn[nH]1 [CBK265468] | 114.308
15 | CCOC(=O)c1nc(N)c2c(CC#N)nn(C)c2n1 [CBK023254] | 83.8354
16 | COc1cccc(N2C(=O)CC(N3CCN(Cc4ccc5c(c4)OCO5)CC3)C2=O)c1 (stereo not shown) [CBK074411] | 91.4361
17 | NS(=O)(=O)c1ccc(NC(=S)Nc2cccc(C(=O)O)c2)cc1 [CBK266880] | 72.6366
18 | Cn1cccc1C(=O)N[C@H]1C[C@@H]2C(=O)N[C@H]3CCN(C(=O)C4CCCC4)[C@@H]3C(=O)N2C1 [CBK289272] | 86.7542
19 | Cc1csc(C(Cc2ccsc2)NC(=O)CCc2ccno2)n1 (stereo not shown) [CBK285099] | 85.8117
20 | CC1CN(Cc2cccc(CNc3nccnc3C#N)c2)CCO1 (stereo not shown) [CBK304736] | 93.4495
21 | c1cnc2[nH]c(C3CCNCC3)c(CN3CCCCCC3)c2c1 [CBK285057] | 99.9871

Row | SMILES | % of control remaining
22 | O=C(Nc1ccc(C(F)(F)F)cc1)N1CCC(n2c(=O)[nH]c3ccccc32)CC1 [CBK149847] | 79.2407
23 | CC(=O)Nc1nnc(-c2ccc3c(c2)CCCC3)o1 [CBK287426] | 125.947
24 | Nc1ncc(-c2ccncc2)nc1NCCCN1CCOCC1 [CBK063631] | 91.7686
25 | O=c1c2cccnc2nc(SCCO)n1CC1CCCO1 (stereo not shown) [CBK306113] | 77.3501
26 | CC(C)CN1CCOC(CNC(=O)c2cc(O)nc3ccccc23)C1 (stereo not shown) [CBK297931] | 117.712
27 | Cc1cc(NC(=O)c2cc3ccccc3o2)nc2c1c(=O)oc1ccccc12 [CBK291256] | 102.866
28 | CCN1CCOC(CNc2ncnc3c2CCC3)C1 (stereo not shown) [CBK304811] | 40.5166
29 | CC1CCc2noc(C3CCCN(C(=O)c4ccco4)C3)c2C1 (stereo not shown) [CBK282865] | 92.3509
30 | CN1CCN(CCCNC(=O)N2CCN(Cc3ccccc3)CC2)CC1 [CBK155621] | 107.966
31 | CCOC(=O)C1CCN(S(=O)(=O)c2ccccc2C#N)CC1 [CBK051111] | 88.1269
32 | O=C(CC1SC(NC2CCCCC2)=NC1=O)Nc1cc(Cl)ccc1Cl (stereo not shown) [CBK059501] | 72.3758
33 | COc1ccc(Cl)cc1NC(=O)CN(c1cccc(C(C)=O)c1)S(C)(=O)=O [CBK267835] | 104.488
34 | Cn1nccc1CN1CCCC(COc2ccccc2F)C1 (stereo not shown) [CBK281663] | 103.856
35 | COc1ccc(Cn2c(=O)n(S(=O)(=O)c3ccc(C)cc3)c3ccccc32)cc1 [CBK106550] | 92.3593
36 | O=C(Nc1ccon1)c1nn(-c2ncccn2)c2ccccc12 [CBK048513] | 97.5874
37 | Cc1ccc(NC(=O)c2cnc3sccn3c2=O)cc1 [CBK287448] | 102.075
38 | COc1ccc(C2(NC(=O)Cn3ccnc3)CCCCC2)cc1 [CBK283661] | 111.51
39 | Cc1ccc(S(=O)(=O)CC(=O)N2CCCC3(CCN(C(=O)Cc4c[nH]c5ccccc45)C3)C2)cc1 (stereo not shown) [CBK131595] | 88.0687
40 | COc1ccc(OCCCN)c(C(=O)N2CCc3nc[nH]c(=O)c3C2)c1 [CBK307361] | 111.027
41 | C[C@H](NC(=O)Cn1cc(-c2ccc(CN3CCCC3)cc2)nn1)c1ccc(Br)cc1 [CBK167692] | 71.2926
42 | O=C(Nc1cccc2nsnc12)c1cc(Cl)ccc1NS(=O)(=O)c1cccc2nsnc12 [CBK261129] | 101.804

Row | SMILES | % of control remaining
43 | CCCN1CCN(Cc2cccc3c2ccn3S(=O)(=O)c2cccs2)CC1 [CBK116196T] | 81.1251
44 | Cc1cc(C)nc(N2CCC(CC(=O)N3CCN(C4CCCC4)CC3)CC2)n1 [CBK285957] | 107.628
45 | CC(Oc1ccc(Cl)cc1Cl)C(=O)O/N=C(\N)c1ccccn1 (stereo not shown) [CBK264673] | 99.8149
46 | Cn1c(=O)[nH]c(=O)c2c1nc(NC1CCCCC1)n2CCCc1ccccc1 [CBK269500] | 117.835
47 | COc1cccc(NCc2nnc(SCC(=O)O)n2C2CCCCC2)c1 [CBK297499] | 79.7131
48 | CCCCn1c(SC(C)C(N)=O)nc2cc(C(=O)OC)ccc2c1=O (stereo not shown) [CBK305877] | 37.1243
49 | Cc1ccccc1-c1ccccc1CC1(C(=O)N(C)C)CCN(C(=O)C2CCCCC2)CC1 [CBK285718] | 78.7236
50 | CCn1cc(C(=O)NN)c(=O)c2cc(F)c(N3CCSCC3)cc21 [CBK307148] | 92.9628
51 | Nc1nnc(CSc2cccc3cccnc23)o1 [CBK021397] | 92.4871
52 | CCOc1ccc(S(=O)(=O)N2CCN(Cc3cccc(F)c3C)CC2)c2cccnc12 [CBK062794] | 50.0481
53 | CCOC(=O)C1CCN(S(=O)(=O)c2ccccc2)CC1 [CBK051091] | 102.192
54 | CCCc1[nH]nc(O)c1CCc1ccccc1C(F)(F)F [CBK075081] | 61.5457
55 | CCn1cc(S(=O)(=O)NC2(c3ccccc3)CCCC2)cn1 [CBK282767] | 127.53
56 | CC(=O)N(CN1C(=O)CCC1=O)C(CC(C)C)C(=O)O (stereo not shown) [CBK286553] | 67.8123
57 | O=C(CSc1nnc(Cc2ccccc2)o1)N1c2ccccc2Sc2ccccc21 [CBK268008] | 102.139
58 | O=C(c1cccc(-c2ccc(F)cc2)c1)N1CC(O)C1 [CBK281499] | 102.908
59 | O=C(Cc1cccc(F)c1)N1CCOCC1 [CBK058928] | 95.2962
60 | COc1ccc(CN2CC(C(=O)O)CC2=O)cc1 (stereo not shown) [CBK267242] | 104.488
61 | CN(C)S(=O)(=O)c1cccc(C(=O)N(Cc2ccc(F)cc2)Cc2ccco2)c1 [CBK267579] | 106.739
62 | Cn1ccnc1CN1C[C@@H]2CCCN2C[C@@H]1Cc1ccccc1 [CBK283202] | 107.436
63 | Cc1csc(NS(=O)(=O)CC(C)C)n1 [CBK021434] | 61.8485

Row | SMILES | % of control remaining
64 | O=C(NCCOc1ccc(F)cc1)c1cccc(-n2cccn2)c1 [CBK281596] | 124.035
65 | CCOC(=O)CCCCSc1c(CC)c(C)nc2ccccc12 [CBK153458T] | 86.5565
66 | CS(=O)(=O)N(CCc1ccccc1)CC(=O)O [CBK281244] | 76.1317
67 | COc1cc2c(cc1OC)C(C(=O)O)CC(=O)N2 (stereo not shown) [CBK218955] | 118.48
68 | Cc1cc(C[C@@H]2COC[C@H]2NCc2ccc(Cl)cc2)on1 [CBK285402] | 100.917
69 | CC1CCCN(C(=O)c2ccc(-n3ccnc3)c(-n3cccc3)c2)C1 (stereo not shown) [CBK285370] | 94.5927
70 | COc1ccc(CN[C@@H]2CCC[C@H]2Cc2cc(C)no2)cc1 [CBK285401] | 78.2902
71 | c1ccc(C[n+]2cn3cc(-c4ccccc4)nc3[n-]2)cc1 [CBK261654] | 105.316
72 | CN(C)c1nc(Cl)nc(N(C)C#N)n1 [CBK025922] | 89.9575
73 | Cn1c(=O)c2[nH]c(CN3CCN(Cc4ccccc4)CC3)nc2n(C)c1=O [CBK269519] | 96.0924
74 | CC1CC(C(F)F)n2nc(C(=O)O)nc2N1 (stereo not shown) [CBK267636] | 115.98
75 | O=[N+]([O-])c1ccccc1S(=O)(=O)NCc1ccccn1 [CBK261751] | 91.5026
76 | COc1ccc(C2(C(=O)NCc3c(F)cccc3F)CC2)cc1 [CBK149826] | 68.6643
77 | CCN(CC)CCN1CCN(c2cncc(-c3cccc(/C=C/C(=O)O)c3)n2)CC1 [CBK066097] | 103.525
78 | CC(C)(c1ccccc1)c1ccc(OCC(=O)Nc2cccc(C(=O)O)c2)cc1 [CBK266014] | 84.2616
79 | COc1ccccc1CNC(=O)c1cccc(C)c1[N+](=O)[O-] [CBK265703] | 76.7397
80 | COCCC(=O)NCC1Cc2cc(F)cc(-c3ccc(C(C)=O)s3)c2O1 (stereo not shown) [CBK306742] | 104.858
81 | CCN(CC)CCN(C(=O)c1cnn(C)c1C)C1CCS(=O)(=O)C1 (stereo not shown) [CBK305321] | 109.347
82 | C(=C\c1cccc(N2CCN(CCN3CCCC3)CC2)n1)/c1ccccc1 [CBK036853] | 119.69
